Measurements: patent publication US5112808A, “Alkylated hormone-releasing peptides and method of treatig mammals therewith” (American Cyanamid Company, priority 1988, dated 1992)
Not every detail of the peptide structures is certain; ends, links or a residue may be inferred.

How the values were obtained:
growth hormone release = experiment: Peptide effects on growth hormone release in the pentobarbital-anesthetized rat (plasma GH by RIA); format: in vivo; conditions: for PLASMA GH: 15 min, saline control 91 ± 11
Method: In this evaluation, the procedures described by W. A. Murphy et al., Endocrinology 109: 491-495 (1980), were employed.
In growth hormone (GH) experiments, male rats (Charles Rivers) were anesthetized with NEMBUTAL® (6 mg per 100 g body weight) which also served to maintain stimulated plasma GH levels. Exactly 30 minutes after the rats were anesthetized, 0.5 mL of saline or the test peptide in saline was administered as a SC bolus. A 1 mL blood sample was drawn from the jugular vein 15 minutes after the injection of the peptide in saline or at the indicated times in the time course assay (p26). GH levels were determined using NIADDKD rat GH RIA components.

plasma growth hormone = experiment: Evaluation of peptides in vivo in sheep: plasma GH levels in lambs injected intravenously at 100 ng/kg
Method: The purpose of this experiment is to compare the GH releasing activities of several GRF analogs selected for expected high potency and the lack of either a terminal amide or a D-amino acid. The analogs to be compared in wether lambs at 100 ng/kg (IV) are tri-isopropyl-GRF(1-29)-NH2, tri-isopropyl-GRF(1-29)-OH, tri-isopropyl-GRF(1-40)OH, D-ala^2, arg^12,21 -GRF (1-29)-OH, D-ala^2, arg^12,21 -GRF(1-29)-NH2, GRF(1-40)-OH and GRF(1-29)-NH2
A balanced 8×8 Latin square design will be used to test the following 8 treatments:
Sheep are maintained in individual metabolism cages at all times. Each sheep has previously received an indwelling jugular cannula which is flushed daily with heparinized (400-800 IU/ml) sterile saline to help maintain […].
All compounds are solubilized at 5 ug/ml in sterile saline containing 1% Tween 80 and injected intravenously at 100 ng/kg. Control lambs receive equal volumes of the vehicle only. The drugs are prepared each day just prior to injection to minimize sticking to the vials.
Blood is collected in heparinized tubes at 15 minute intervals for one hour prior to and for two hours after the treatments are administered. Plasma samples are removed by centrifugation and frozen.
Blood samples are taken from each animal at 15 minute intervals for 3 hours each day during the 8 day trial period. The samples are analyzed for plasma growth hormone (ng/ml). Data obtained are reported below as near values obtained for each treatment.

## CC[C@H](C)[C@H](NC(=O)[C@H](C)NC(=O)[C@H](CC(=O)O)NC(=O)[C@H](C)NC(=O)[C@H](Cc1ccc(O)cc1)NC(C)C)C(=O)N[C@@H](Cc1ccccc1)C(=O)N[C@H](C(=O)N[C@@H](CC(N)=O)C(=O)N[C@@H](CO)C(=O)N[C@@H](Cc1ccc(O)cc1)C(=O)N[C@@H](CCCNC(=N)N)C(=O)N[C@@H](CCCCNC(C)C)C(=O)N[C@H](C(=O)N[C@@H](CC(C)C)C(=O)NCC(=O)N[C@@H](CCC(N)=O)C(=O)N[C@@H](CC(C)C)C(=O)N[C@@H](CO)C(=O)N[C@@H](C)C(=O)N[C@@H](CCCNC(=N)N)C(=O)N[C@@H](CCCCNC(C)C)C(=O)N[C@@H](CC(C)C)C(=O)N[C@@H](CC(C)C)C(=O)N[C@@H](CCC(N)=O)C(=O)N[C@@H](CC(=O)O)C(=O)N[C@H](C(=O)N[C@@H](CCSC)C(=O)N[C@@H](CO)C(=O)N[C@@H](CCCNC(=N)N)C(N)=O)[C@@H](C)CC)C(C)C)[C@@H](C)O [N^α iPrTyr^1, N^ε iPrLys^12,21, [N^α -isopropyl-Tyr^1, N^ε -isopropyl-Lys^12,21]GRF(1-29)-NH2]
Growth hormone release; dose 0.08 ug/100 g BW SC
  PLASMA GH: 308 ± 24 ng/mL
Growth hormone release; dose 0.20 ug/100 g BW SC
  PLASMA GH: 467 ± 86 ng/mL
Growth hormone release; relative to GRF(1-29)NH2 (=1) as standard, by 4point assay (95% CI limits in parentheses)
  POTENCY: 70-161
Plasma growth hormone; 100 ng/kg IV, control 12.2
  Plasma GH Peak: 71.9 ng/mL
Plasma growth hormone; 100 ng/kg IV, two hours after treatment, means of 8 samples/animal from 8 animals, control 8.7
  Plasma GH Post-inj Mean: 22.0 ng/mL
Plasma growth hormone; before IV injection of 100 ng/kg, means of 5 samples/animal from 8 animals, control 8.4
  Plasma GH Pre-inj Mean: 9.7 ng/mL
